The other results are listed elsewhere or left out.
B1: chr10:103289619:103289731:+|3pUTR|ENSG00000148798|unk|FALSE|unique (ssRNA)
RNA: GGGAGUUCUACAGUCCGACGAUCAUGAGUGGAAAAAGCCAAGGUGUCAUUUAUGUGUCAGUUCAUUUGUGGUGAUAUAGAAUUAGCUUUUUCAUCCCCUUACCCUUAGAAUCCACGUAUUCCCCUUCCCACUAGCCUAGGUCACAACAGAGGAUUGAGCAUCA
B2: chr12:57478539:57478757:-|CDS|ENSG00000123329|control|control|control (ssRNA)
RNA: GGGAGUUCUACAGUCCGACGAUCCUCCCAAGCAGGGCUCAGGCUAGCUCGGAGCAGCCUCCUCCACUUCCCCGCAAAAUGUGUAGGAGCGUCAGCACUGACAAUCUGAGCCCCAGCCUUCUGAAGCCUUUCCAGGAAGGACCACAACAGAGGAUUGAGCAUCA
B3: chrX:152750421:152751363:-|CDS|ENSG00000268606|control|control|control (ssRNA)
RNA: GGGAGUUCUACAGUCCGACGAUCCGACAAUCAGGUCAUGCCCAAGACAGGCCUCCUGAUAAUCGUCCUGGCCAUAAUCGCAAUAGAGGGCGACUGUGCCCCUGAGGAGAAAAUCUGGGAGGAGCUGAGUAUGUUGGAGGUGUUCAACAGAGGAUUGAGCAUCA
B4: ENSG00000070961:be:win_3151|CDS|ENSG00000070961|bound_else_gene|NA|bound_elsewhere_windowed (ssRNA)
RNA: GGGAGUUCUACAGUCCGACGAUCACAUUACUCUGGGGCCAGCUUAUUUCAACAAUUCCAACUAGCCGUUUAAAAUUCCUCAAAGAAGCUGGUCAUGGAACACAAAAGGAAGAAAUACCUGAGGAGGAAUUAGCAGAGGAUGUUCAACAGAGGAUUGAGCAUCA
B5: chr17:10306458:10306629:-|CDS|ENSG00000006788|control|control|control (ssRNA)
RNA: GGGAGUUCUACAGUCCGACGAUCCCACCUGGAGCGGAUGAAGAAGAACCUGGAGCAGACGGUGAAGGACCUGCAGCACCGUCUAGAUGAGGCUGAACAACUGGCGCUGAAGGGCGGGAAGAAGCAGAUCCAGAAACUGGAGAACAACAGAGGAUUGAGCAUCA
B6: chr2:227551976:227552087:+|CDS|ENSG00000173744|unk|total|mutant (ssRNA)
RNA: GGGAGUUCUACAGUCCGACGAUCUCCAUGAGCAUGCCCACAGGAUUCGGCACUCCUGCUCCCUACAGUCUUCCCACCAGCUUCCGUGGCAGCUUUCAGCAGCCUGCCUUUCCAGCCCAAGCAGCUUUCCCUCAACAGACAGCUCAACAGAGGAUUGAGCAUCA
B7: chr15:42211119:42211220:-|3pUTR|ENSG00000103978|unk|FALSE|unique (ssRNA)
RNA: GGGAGUUCUACAGUCCGACGAUCAGGUUACAUCUUGCAGAGGUUGUUUUGAGAAAAAAGGGCCCUUCUGAGUUAAGGAGCCAUAGUUCUAUCAAUGAUCAAAAGAAAAAAAAAAAAAGAGAAACUGUUACAGUAUGAUUCAGACAACAGAGGAUUGAGCAUCA
B8: chr17:41167230:41167584:-|three_prime_utr|ENSG00000196156|control|control|control (ssRNA)
RNA: GGGAGUUCUACAGUCCGACGAUCAUGUGGACUUCCUGAUGUCGUGAAAACAGAGGCAUGGACUGAUUUGGAAAAUAUUUUAUUAGUAUGUAUUCUCUUUUAUAGAAGUUUUUAUUCCUAUUGAAUCUGAAUUUACAGUCAAAUCAACAGAGGAUUGAGCAUCA
B9: chr13:39012690:39014476:-|CDS|ENSG00000120685|control|control|control (ssRNA)
RNA: GGGAGUUCUACAGUCCGACGAUCCCAGGGUCAUUAAUAGCCACCUCAUCUACCGCUGCCACCUCCACAUCUCUCCCUCAUCCUAGCUCAACGGCAGCUGUUCUCUCAGGGCUUUCUGCUUCAGCACCAGUCUCAGCAGCACCUCAACAGAGGAUUGAGCAUCA
B10: chr7:123541454:123541562:-|3pUTR|ENSG00000128609|unk|FALSE|unique (ssRNA)
RNA: GGGAGUUCUACAGUCCGACGAUCUCCAUAGUGUCAUUUUAUUUUAGUCAUUAUUGAAUUAUACCAUUUACUCUGUUUUCUUAUAGUCUUAAUUUUAUUAUAUUUUGUUGUUACUGUAUUAUAUUUGAAAACCUUCAAAUUAGACAACAGAGGAUUGAGCAUCA
B11: chr16:3022182:3022332:+|3pUTR|ENSG00000006327|msi1|FALSE|unique (ssRNA)
RNA: GGGAGUUCUACAGUCCGACGAUCCCACGGGGGUCACCCUGGGGGGUUAGGGACCUAUUUUUAACACUAGGGGGCUGGCCCACUAGGAGGGCUGGCCCUAAGAUACAGACCCCCCCAACUCCCCAAAGCGGGGAGGAGAUAUUUCAACAGAGGAUUGAGCAUCA
B12: chr1:235448940:235449205:-|3pUTR|ENSG00000162885|unk|total|mutant (ssRNA)
RNA: GGGAGUUCUACAGUCCGACGAUCAACCGAGAAUUCCAUUAAAACCCGUCUUAUGACAGAUAUUAACUGUGUUCAGAUUUUAUCCGGCCCGCCCGUUUCUUUCUAUUUAAUAUUUAAAUCUUAUCAUGAAAUGCAGUGAUGAGCCAACAGAGGAUUGAGCAUCA
B13: chr10:43183422:43183523:+|CDS|ENSG00000169826|msi1|total|mutant (ssRNA)
RNA: GGGAGUUCUACAGUCCGACGAUCUAAAGCCAUGAAUGAGGCCUCUCACUCCCACCUGGGAAUGCUGGUCUUCAGGGAGGAAACCGAGACGCAUCUUCAUAAACAGGCAUACAGGACAAACAGUGAAGCUGUUGGUUGAAAUCACAACAGAGGAUUGAGCAUCA
B14: chr2:70277881:70277982:+|3pUTR|ENSG00000116005|msi1|total|mutant (ssRNA)
RNA: GGGAGUUCUACAGUCCGACGAUCACCUGAGGGAGAACUUAAAGACAUCUCCGUUGGGGAGCCGUCCUUUUGAAUUUUACAGCCCGAUAUAAUCUUCAGUCAGAUAAAAUUUAUGGGAGCUGGUGUCUUAUGCCUGACUCUCCGCAACAGAGGAUUGAGCAUCA
B15: chr11:9429001:9429102:+|CDS|ENSG00000205339|msi1_unk|total|mutant (ssRNA)
RNA: GGGAGUUCUACAGUCCGACGAUCGGUACUUCACUAUUUUUGUGAAGUGAAGUUCAAAAGUGAUCAGAACCUUCAAACAGCCUCCGAGCUAACAAGAAGAUGUCUGAUUGAUGACCGAGAAAUGCCUGUGAAAGUGGAAGCUGCCAACAGAGGAUUGAGCAUCA
B16: ENSG00000109805:stop:overlap|stop_codon|ENSG00000109805|stop_codon|NA|stop_codon (ssRNA)
RNA: GGGAGUUCUACAGUCCGACGAUCCCGCAGCACUAGAAAAAAGUAAACUUAACCUUGCCCAAUUUCUCAAUGAAGAUCUAAGUUAGGAAAGACGAUGGAGGUGGAAUCCUUUAAGAUUAUGUCCAGUUAUUUGCUUUAAUAAAGCAACAGAGGAUUGAGCAUCA
B17: chrX:40073105:40073212:-|CDS|ENSG00000183337|unk|total|mutant (ssRNA)
RNA: GGGAGUUCUACAGUCCGACGAUCCUACCAAGAUGCCCUGGGGUUGGGCAUGGUGCAUCCCAUGUUGAUACCACACACGCCCACCGAGAUUACUAAAGAGGAGAAACCAGAGAGGAGAUCCCGGUCCCAUGAGAGAGCCCGUUACAACAGAGGAUUGAGCAUCA
B18: chr12:54395726:54395827:-|3pUTR|ENSG00000161638|msi1_unk|FALSE|overlapping (ssRNA)
RNA: GGGAGUUCUACAGUCCGACGAUCAAGAACACUAACUAUGCAUGGUGCCCCAGGACCAGCUCAGGACAGAUGCCACACAAGGAUAGAUGCUGGCCCAGGGCCCAGAGCCCAGCUCCAAGGGGAAUCAGAACUCAAAUGGGGCCACAACAGAGGAUUGAGCAUCA
B19: chr11:49981574:49982501:-|CDS|ENSG00000221954|control|control|control (ssRNA)
RNA: GGGAGUUCUACAGUCCGACGAUCGAACAAUAGCUUGGAGGGGAGGUGUAAAGCCCUCUCCACCUGUAUUUCUCACAUCAUAGUAGUUGUCUUAUUCUUUGUGCCCUGUAUAUUUGUGUAUCUGCGCUCAGUGACCACUCUGCCCAACAGAGGAUUGAGCAUCA
B20: chr19:4409044:4409156:+|CDS|ENSG00000167670|unk|total|mutant (ssRNA)
RNA: GGGAGUUCUACAGUCCGACGAUCCUGUCAUGUGGGUUCUGACACCGACUUCCGACCGAAACUUGUCAACGGGAAGGGUCCCUCCGAUAACUUUUUAAGAAACCGAAUCGAAACCAGUAUUGGCCAGAGCACAGUCAUCAUUGACAACAGAGGAUUGAGCAUCA
B21: chr3:120395571:120395798:-|3pUTR|ENSG00000163430|msi1|FALSE|unique (ssRNA)
RNA: GGGAGUUCUACAGUCCGACGAUCUGGUUCUGAUCAUUGGUCCAGAGGGGAGAUAGGUUCCUGUGAUUUUUCCUUCUUCUCUAUAGAAUAAAUGAAAUCUUGUUACUAGAACAAGAAAUGUCAGAUGGCCAAAAACAAGAUGACCAACAGAGGAUUGAGCAUCA
B22: chr13:32776882:32776983:+|3pUTR|ENSG00000083642|unk|FALSE|unique (ssRNA)
RNA: GGGAGUUCUACAGUCCGACGAUCAAAGUGUUUUGAAUUGUGUCUUAAUCUCUCCAUAUUCAACUAUUCUUCAUUUACAACAAUAGUGACACCAGUAAUUAUGAGAGGCUGUCAUAUAUCAAAGCAGCUCAGGUGGGAUCAACACAACAGAGGAUUGAGCAUCA

molecular target: MSI1 full-length (mouse, UniProt Q61474 1-362); assay: nsRBNS (natural sequence RNA bind-n-seq); RBNS binding buffer (assumed for nsRBNS): 25 mM Tris pH 7.5, 150 mM KCl, 3 mM MgCl2, 0.01% Triton X-100, 500 ug/ml BSA, 20 U/ml SUPERase-In, 4 C; UNK is unkempt and MSI1 is Musashi-1; names of the RNAs are library labels; protein concentration not given here; high values mean tight binding
Sequence of UniProt Q61474 (Q61474 whole entry): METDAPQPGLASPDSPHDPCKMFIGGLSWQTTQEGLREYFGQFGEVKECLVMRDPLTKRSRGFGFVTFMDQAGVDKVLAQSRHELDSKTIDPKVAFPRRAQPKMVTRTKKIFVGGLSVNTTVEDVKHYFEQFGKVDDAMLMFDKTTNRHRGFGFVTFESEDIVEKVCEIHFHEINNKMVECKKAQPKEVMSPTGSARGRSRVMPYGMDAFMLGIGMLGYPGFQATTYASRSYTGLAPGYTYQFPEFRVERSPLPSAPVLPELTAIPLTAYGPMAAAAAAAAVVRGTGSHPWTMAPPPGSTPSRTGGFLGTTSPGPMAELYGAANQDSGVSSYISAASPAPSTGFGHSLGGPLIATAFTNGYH

Row | Binder | binding signal [enrichment R]
1 | B1 | 4.28
2 | B2 | 0.402
3 | B3 | 0.462
4 | B4 | 0.641
5 | B5 | 0.485
6 | B6 | 0.733
7 | B7 | 0.66
8 | B8 | 7.66
9 | B9 | 1.16
10 | B10 | 42.9
11 | B11 | 2.35
12 | B12 | 1.57
13 | B13 | 0.376
14 | B14 | 0.34
15 | B15 | 0.242
16 | B16 | 6.83
17 | B17 | 0.534
18 | B18 | 0.464
19 | B19 | 2.83
20 | B20 | 0.36
21 | B21 | 3.98
22 | B22 | 0.475
